≈ marks a conversion by molar mass, not a printed value. Like-named read-outs stand apart in the source and are kept apart here.
Columns and labels:
[1] = Supersaturation test by addition of a crystal; details: Example 4, crystal addition
skin cancer = details: anti skin cancer activities; cited from earlier work
[2] = Solubility in Polysorbate 80 via thermal treatment process; details: HPLC-MS
[3] = 25° C., Li et al. 1997; cited from earlier work
[4] = Solubility of apigenin in propylene glycol and ethylene glycol; type: physicochemical; details: for solubility: organic solvent or mixture, thermodynamic from solid
[5] = Aqueous solution clarity: water added to concentrate vs non-concentrate method

| Compound | supersaturation of cooled nonionic surfactant liquid [1] | concentration at which apigenin acts effectively (skin cancer) [µM] | concentration of apigenin in A/PS80 [2] [%] | solubility in hydrophilic and lipophilic surfactants tested [3] [mg/mL] | behaviour upon cooling to room temperature ([4]; EG solution) | behaviour upon cooling to room temperature ([4]; PG solution) | solubility ([4]; ethylene glycol, heated to about 190° C., read-out: concentration completely solubilized in EG) [mg/mL] | solubility ([4]; propylene glycol, heated to about 175° C., read-out: concentration completely solubilized in PG) [mg/mL] | clarity, non-concentrate method (all ingredients with water heated to about 100° C.) ([5]; Nonoxynol-9) | clarity, non-concentrate method (all ingredients with water heated to about 100° C.) ([5]; PEG 400) | clarity after addition of 17 ml of water to the concentrate ([5]; PEG 400 concentrate) | clarity, non-concentrate method (all ingredients with water heated to about 100° C.) ([5]; PS80) | clarity after addition of 17 ml of water to the concentrate ([5]; PS80 concentrate, more than 50 hours) | clarity after addition of 17 ml of water to the concentrate ([5]; nonoxynol-9 concentrate, more than 50 hours) |
| --- | --- | --- | --- | --- | --- | --- | --- | --- | --- | --- | --- | --- | --- | --- |
| O=c1cc(-c2ccc(O)cc2)oc2cc(O)cc(O)c12 [Apigenin, 4′,5,7,-trihydroxyflavone] | not supersaturated | < 50 | 4.05 | 0.15 to 0.68 | appreciable apigenin precipitation | appreciable apigenin precipitation | 40 (≈ 148 mM) | 40 (≈ 148 mM) | – | – | – | – | – | – |
| CC(C)CCC[C@@H](C)[C@H]1CC[C@H]2[C@@H]3CC=C4C[C@@H](O)CC[C@]4(C)[C@H]3CC[C@]12C [Cholesterol] | – | – | – | – | – | – | – | – | opaque cloudy solutions | opaque cloudy solutions | a cloudy opaque solution resulted | opaque cloudy solutions | remained clear | remained clear |

Reference: patent US20170296668A1, “METHODS OF INCREASING SOLUBILITY OF POORLY SOLUBLE COMPOUNDS AND METHODS OF MAKING AND USING FORMULATIONS OF SUCH COMPOUND” (VIZURI HEALTH SCIENCES LLC, priority 2009, published 2017)
